{"source": "paper PMC12136788", "binders": {"B1": {"name": "15614295_15614415_1460_CDS_ENSG00000151779_ENST00000281513|human|control|control (ssRNA)", "RNA": "GGGAGUUCUACAGUCCGACGAUCUUCAGUCACCAAGUAAAGGCCCUGUUUUAUAUAACCAAAGUAGCGAGCCUUGGCAGAUAUUUCAUAAUCAGAAUCAGAAUCCUCUUCUCCUUCAUCUUCUUCUCCAGCUCUAGUCUCCAACAACAGAGGAUUGAGCAUCA"}, "B2": {"name": "chr5:61681977:61681978:+_ENSG00000068796_ENST00000381103|hu_mus|FALSE|FALSE (ssRNA)", "RNA": "GGGAGUUCUACAGUCCGACGAUCCACUGUCACAGACUUUAGUUCCGUUCAAUUGAUAUGGCACAUCCUGCAAAAUUAACUAGUCACACACAAAAAAAUGUCUCAAAUACAGUAAAAAUGUACACACAGUAAAGGUAAUUUACACAACAGAGGAUUGAGCAUCA"}, "B3": {"name": "chr13:43497316:43497317:+_ENSMUSG00000063200_ENSMUST00000071926|mus_mus|motif|central (ssRNA)", "RNA": "GGGAGUUCUACAGUCCGACGAUCCAAACAAAAUAUGUUUAUGAUUUUUAUAAUGAUCCGUUACAAUGAUUUAUCAGUGACGGAAUUUUGAGAAAUGAACCCUCUCUGCACCCAGUAAUCUUAAACUAUGCAUGCAAAAUGCAGCAACAGAGGAUUGAGCAUCA"}, "B4": {"name": "chr3:179287964:179287965:+_ENSG00000136518_ENST00000429709|hu_mus|FALSE|FALSE (ssRNA)", "RNA": "GGGAGUUCUACAGUCCGACGAUCCUUGAGUGGUGAGAUGGCCUCCAUGUUCUCCCUGGGCACGCGGAGGGCAUUGGUGUCUAUGUAGUAGGUGGGCCCGCCCUGCUUGCCUUUGUCACCAUCAAUCUCCAUCAUUGUACUUCCCAACAGAGGAUUGAGCAUCA"}, "B5": {"name": "chr7:135612270:135612271:-_ENSG00000105887_ENST00000393085|hu_mus|hu_hu_hu_mus_False|1_38 (ssRNA)", "RNA": "GGGAGUUCUACAGUCCGACGAUCGUUUUUUUCUGAGAUGUUAAAUAGUACUUCAGUGGAAAACAAAACUUAACCUUUUAUUAAUGCGUGUUGUACCAGAAAGCAAAAUUUUAGCUUCAUUUAUUCAAAAAUAUUAAGAACAUUCAACAGAGGAUUGAGCAUCA"}, "B6": {"name": "chr4:17845017:17845018:+_ENSG00000109805_ENST00000514176|hu_mus|hu_hu_hu_mus_False|1_48 (ssRNA)", "RNA": "GGGAGUUCUACAGUCCGACGAUCGCUCUCUUAACUUGUAUCUUCAUUAAGGAACUCUGCAAGGUUAAGUUUACUUUUCUGUAGCGCGCGGUUUUGGGCUCGUCUGGGUAAUCUCAUCUUCAUUUCUGAUGGUGGUUUGGAACUCAACAGAGGAUUGAGCAUCA"}, "B7": {"name": "chr11:18536319:18536320:-_ENSG00000074319_ENST00000251968|perfect_dup|FALSE|FALSE (ssRNA)", "RNA": "GGGAGUUCUACAGUCCGACGAUCUAGGUAGAUUUUCCCAUUUGCAUCCACAUGCUUUCCUGUUUUAAUAGUCAUUGAACUAGUAGGCUUAACAAAACAGAUAGGGGGGUUAUAUGGGUAUGUGUCCAGCAGCCACAGGCAUAUCAACAGAGGAUUGAGCAUCA"}, "B8": {"name": "chr1:220276048:220276049:+_ENSG00000067704_ENST00000302637|hu_hu|hu_hu_hu_mus_True|1_78 (ssRNA)", "RNA": "GGGAGUUCUACAGUCCGACGAUCGCAAAUUGCCUGGUUGGCGGGAAUUGUCCAAGGUUGUGUGGUCCAAACUAAAACGCUAACAGGGGAUGAGGCAUCUGUAAGAGACUCCAACUUCGGAGGAGGUCUCAGGAGGGGAAAUUUCAACAGAGGAUUGAGCAUCA"}, "B9": {"name": "chr11:54532201:54532202:-_ENSMUSG00000052298_ENSMUST00000064104|mus_mus|motif|central (ssRNA)", "RNA": "GGGAGUUCUACAGUCCGACGAUCCAAUCAAUCAAAGGCAGUUAGAUAGUAAGCAAAGUGGACCGCAGGAUCCAGCGGCCGGUACUCAGCAGGGAAGAGGAACAGAAUGGGACCUGAGCAAAGGCCUCUUACUAACCACAGAGUCAACAGAGGAUUGAGCAUCA"}, "B10": {"name": "chr17:66251843:66251844:+_ENSG00000196704_ENST00000359783|hu_mus|motif|central (ssRNA)", "RNA": "GGGAGUUCUACAGUCCGACGAUCAAGUAUGUGUCCGAUCUCAUGGGUUAAAGUCUUACAGGAUCGCAACAGCAAAACACGGGUGAUUUCAGGGAUGUAAUAGUUAUCAAAAAUGGAGUAGUCAGUGGGAGACGUUAGCUGCAGCAACAGAGGAUUGAGCAUCA"}, "B11": {"name": "chr2:37230337:37230338:-_ENSMUSG00000075376_ENSMUST00000100143|mus_mus|motif|central (ssRNA)", "RNA": "GGGAGUUCUACAGUCCGACGAUCAAAUAGAAAUAAGUUAAUUAACUCUACUUUCACUAGAUGUAUCAUUGUAGGAUCCUGCGGGUUUAAUAACUGAGUUGUUAAUUUACUGUAGAAGCCAUUUAAAAUAGGAAAUGGCUCAGUCAACAGAGGAUUGAGCAUCA"}, "B12": {"name": "chr7:54825262:54825263:-_ENSG00000132432_ENST00000352861|hu_hu|hu_hu_hu_mus_False|78_88 (ssRNA)", "RNA": "GGGAGUUCUACAGUCCGACGAUCCUGCCGGCUGGGCUCCACAAACUUUACCUGAUCCAUGACUGCCGUUGGAUGGCGGAUUGAGAGCGUAGAGACACGUAGCUCAGGAGAGAACCGAGCCCAACGGAACCGGAAGCUGGCAACCAACAGAGGAUUGAGCAUCA"}, "B13": {"name": "7480480_7480778_697_CDS_ENSG00000161960_ENST00000293831|human|control|control (ssRNA)", "RNA": "GGGAGUUCUACAGUCCGACGAUCGCGGAUACCCUCCAGGGUCAACUCUUCCUUCUUGACAAGAAUCCGAAUGGGGUCCCUCAUGAACUUCUUGGUCACCUCAAGCACAUCAGAAGGCAUUGUGGCUGACAGCAAAACUACCUGCAACAGAGGAUUGAGCAUCA"}, "B14": {"name": "chr14:78183846:78183847:+_ENSG00000119705_ENST00000557342|hu_hu|hu_hu_hu_mus_False|68_78 (ssRNA)", "RNA": "GGGAGUUCUACAGUCCGACGAUCUCUCAGAAAUCUUUCUUCAUCAGAUGUUUGAGCUGUUUGCGGAAGUUUUGGCCUUUGAGCUUGAACGUGGAUCUAUGGGAGGGAAAGCACUGUCAGAAAAGGUAAUUUUUUUUUUAAAGACAACAGAGGAUUGAGCAUCA"}, "B15": {"name": "chr18:78020638:78020639:+_ENSMUSG00000025428_ENSMUST00000026495|mus_hu|FALSE|FALSE (ssRNA)", "RNA": "GGGAGUUCUACAGUCCGACGAUCAUCAGCCCUGAUAGUGCCCAACAAGGCUUGGUGCUGGCUGACGACAUGAGACAAGAAAGCAUUCUCAAACUUUGUAAUCUUGCUGGGCUCCAGUUUAUCAAGAUAUCCCCUUACACCCGCCAACAGAGGAUUGAGCAUCA"}, "B16": {"name": "37444613_37445649_2279_CDS_ENSMUSG00000026113_ENSMUST00000027287|mouse|control|control (ssRNA)", "RNA": "GGGAGUUCUACAGUCCGACGAUCACAGAUGAGGGCUGUCAGGGUUUGGCAGAAGACGACGUCACGGCGAUACUGCAGGCUGAGGUACGAGGCAAUGGUGGGGGCACUGUCCUGCAUGAGCAGGAAGACCAUGGCUGCCUUGGCCAACAGAGGAUUGAGCAUCA"}, "B17": {"name": "23048678_23050075_2025_CDS_ENSMUSG00000026775_ENSMUST00000028117|mouse|control|control (ssRNA)", "RNA": "GGGAGUUCUACAGUCCGACGAUCAGUUUCAUUCCAUCUGUCAUUCUCAGGCAACAGUGAUACAUGCCCAAGUGUUGGCCCUCGAGGCAUGAUUGUAGCUUUAUUAAUUGGCAUUGCAUCCUUUGUGUAAUAUGCAAUAAUAGCCAACAGAGGAUUGAGCAUCA"}, "B18": {"name": "chr3:67279072:67279073:+_ENSMUSG00000027774_ENSMUST00000077271|mus_mus|motif|central (ssRNA)", "RNA": "GGGAGUUCUACAGUCCGACGAUCUGCCCAGAAUCCUACCUCUUGAUGAGAGGACUGUGAGUUUUGAGGCCAACAGGGGCGGUAUACACACAGCCCUUAUGUCCAAAAAAAAAAAAAGCAGUGAAGUAAAUUUAUAUAUAUUUUCAACAGAGGAUUGAGCAUCA"}, "B19": {"name": "chr14:89338683:89338684:+_ENSG00000165533_ENST00000346301|hu_hu|hu_hu_hu_mus_False|38_38 (ssRNA)", "RNA": "GGGAGUUCUACAGUCCGACGAUCGUGGUUGUUGUGGACCAGGGCCAGCCUGAAGCAUUGGUGGGCCAAGUUUGUAUCUCCGAUUCCCACAGCUAUGUGUCCCAAGUUGUACCAGACAUCAGCUGCCUCUUCUUCAUUUUCAGCCAACAGAGGAUUGAGCAUCA"}, "B20": {"name": "chr1:39494447:39494448:+_ENSG00000168653_ENST00000372967|hu_mus|hu_hu_hu_mus_False|88_108 (ssRNA)", "RNA": "GGGAGUUCUACAGUCCGACGAUCGCAUCGACCAGCCUUCUUAUAGGGCUGUUCACCGCUUAGGAACAUAAAGUGCCGGUCCAGGCUGAUGCCCAGCUUUUUCUGUAUGUCAAGGAAAGGCAUGGCUCUGCAGUGCCCUUGUCACAACAGAGGAUUGAGCAUCA"}, "B21": {"name": "chr12:21788615:21788616:-_ENSG00000111716_ENST00000350669|hu_hu|FALSE|FALSE (ssRNA)", "RNA": "GGGAGUUCUACAGUCCGACGAUCCUGGUUGAUAACGCUGGUUAAUCCCCGGGCAUUGAGGAUACAUGGAAGGCUCAGGAAGACUUCAUUCUCAAUGCCAUACAUCCCCUUUACCAUUGUUGACACGGGAUGAAUCCUGGAUAGCAACAGAGGAUUGAGCAUCA"}, "B22": {"name": "115159941_115160061_2324_CDS_ENSMUSG00000032437_ENSMUST00000035010|mouse|control|control (ssRNA)", "RNA": "GGGAGUUCUACAGUCCGACGAUCGAGGAACUUGUUGAUAUCGUCCCCGGAAUAGCCAAUCACUCCUCCGAAAAUAACCAACACAUAAUCGACAUCAAGGGACCUCAUGAUUUUAUAGGCGGCCGUUUCAUUGGAAGACAUAGCCAACAGAGGAUUGAGCAUCA"}}, "note": "The list shows a part of the results."}
{"target": "T1, UNK ZnF1-3 (human, UniProt Q9C0B0 31-174)", "T1 sequence": "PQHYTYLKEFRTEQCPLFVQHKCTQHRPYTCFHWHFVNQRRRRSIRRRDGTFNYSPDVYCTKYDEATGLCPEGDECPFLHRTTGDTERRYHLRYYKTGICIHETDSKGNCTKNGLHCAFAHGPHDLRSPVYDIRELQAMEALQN", "assay": "nsRBNS (natural sequence RNA bind-n-seq); RBNS binding buffer (assumed for nsRBNS): 25 mM Tris pH 7.5, 150 mM KCl, 3 mM MgCl2, 0.01% Triton X-100, 500 ug/ml BSA, 20 U/ml SUPERase-In, 4 C; UNK is unkempt and MSI1 is Musashi-1; names of the RNAs are library labels; protein concentration not given here; high values mean tight binding", "units": {"binding signal": "enrichment R"}}
{"binder": "B1", "binding signal": 1.16}
{"binder": "B2", "binding signal": 1.38}
{"binder": "B3", "binding signal": 1.03}
{"binder": "B4", "binding signal": 0.675}
{"binder": "B5", "binding signal": 1.39}
{"binder": "B6", "binding signal": 0.405}
{"binder": "B7", "binding signal": 0.683}
{"binder": "B8", "binding signal": 1.98}
{"binder": "B9", "binding signal": 1.44}
{"binder": "B10", "binding signal": 2.36}
{"binder": "B11", "binding signal": 0.737}
{"binder": "B12", "binding signal": 1.4}
{"binder": "B13", "binding signal": 1.17}
{"binder": "B14", "binding signal": 2.15}
{"binder": "B15", "binding signal": 1.37}
{"binder": "B16", "binding signal": 1.27}
{"binder": "B17", "binding signal": 0.804}
{"binder": "B18", "binding signal": 1.43}
{"binder": "B19", "binding signal": 0.875}
{"binder": "B20", "binding signal": 0.901}
{"binder": "B21", "binding signal": 0.497}
{"binder": "B22", "binding signal": 0.919}
